# Experimental data published in the supplement of paper PMC8728848.
# Some of the results follow.
# Columns and labels:
# Test in all cases: glycan array binding signal (z-score within array); higher = stronger binding
# Settings in all cases: glycan notation: IUPAC condensed, linker removed
# [1] = target: Man(a1-3)[Man(a1-6)]Man(a1-6)[Man(a1-2)Man(a1-3)]Man(b1-4)GlcNAc(b1-4)GlcNAc
# Procedure, shortened: (§1)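 Negative Z-scores can be read as non-binding. The Z-score is calculated within each array and then averaged across arrays of one protein sequence at different concentrations or buffers and across linkers. Arrays, 3228 in all, were curated from the Consortium for Functional Glycomics database and kept only where the protein sequence was available.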
# [2] = target: Man(a1-3)[Man(a1-6)]Man(a1-6)[Man(a1-3)]Man
# Procedure, shortened: as §1
# [3] = target: Man(a1-3)[Man(a1-6)]Man(a1-6)[Man(a1-3)]Man(b1-4)GlcNAc(b1-4)GlcNAc
# Procedure, shortened: as §1
# [4] = target: Man(a1-3)[Man(a1-6)]Man(b1-4)GlcNAc(b1-4)GlcNAc
# Procedure, shortened: as §1
# [5] = target: Man(a1-3)[Man(a1-6)]Man(b1-4)GlcNAc(b1-4)[Fuc(a1-6)]GlcNAc
# Procedure, shortened: as §1
# [6] = target: Man(a1-6)Man
# Procedure, shortened: as §1
# [7] = target: Man(b1-4)GlcNAc
# Procedure, shortened: as §1
# [8] = target: MurNAc(b1-4)GlcNAc
# Procedure, shortened: as §1
# [9] = target: Neu5Ac(a2-3)Gal
# Procedure, shortened: as §1
# [10] = target: Neu5Ac(a2-3)Gal(b1-3)GalNAc
# Procedure, shortened: as §1
# [11] = target: Neu5Ac(a2-3)Gal(b1-3)GalNAc(b1-3)Gal(a1-4)Gal(b1-4)Glc
# Procedure, shortened: as §1
# [12] = target: Neu5Ac(a2-3)Gal(b1-3)GalNAc(b1-3)Gal(b1-4)GlcNAc
# Procedure, shortened: as §1
# [13] = target: Neu5Ac(a2-3)Gal(b1-3)GalNAc(b1-4)[Neu5Ac(a2-3)]Gal(b1-4)Glc
# Procedure, shortened: as §1
# [14] = target: Neu5Ac(a2-3)Gal(b1-3)GalNAc(b1-4)[Neu5Ac(a2-8)Neu5Ac(a2-3)]Gal(b1-4)Glc
# Procedure, shortened: as §1
# [15] = target: Neu5Ac(a2-3)Gal(b1-3)GalNAc6S
# Procedure, shortened: as §1
# [16] = target: Neu5Ac(a2-3)Gal(b1-3)GlcNAc
# Procedure, shortened: as §1
# [17] = target: Neu5Ac(a2-3)Gal(b1-3)GlcNAc(b1-2)Man
# Procedure, shortened: as §1
# [18] = target: Neu5Ac(a2-3)Gal(b1-3)GlcNAc(b1-2)Man(a1-3)[GlcNAc(b1-4)][Neu5Ac(a2-3)Gal(b1-3)GlcNAc(b1-2)Man(a1-6)]Man(b1-4)GlcNAc(b1-4)GlcNAc
# Procedure, shortened: as §1
# [19] = target: Neu5Ac(a2-3)Gal(b1-3)GlcNAc(b1-2)Man(a1-3)[Neu5Ac(a2-3)Gal(b1-3)GlcNAc(b1-2)Man(a1-6)]Man(b1-4)GlcNAc(b1-4)GlcNAc
# Procedure, shortened: as §1
# [20] = target: Neu5Ac(a2-3)Gal(b1-3)GlcNAc(b1-3)Gal(b1-3)GlcNAc
# Procedure, shortened: as §1
# [21] = target: Neu5Ac(a2-3)Gal(b1-3)GlcNAc(b1-3)Gal(b1-4)GlcNAc
# Procedure, shortened: as §1
# [22] = target: Neu5Ac(a2-3)Gal(b1-3)GlcNAc(b1-3)GalNAc
# Procedure, shortened: as §1
# [23] = target: Neu5Ac(a2-3)Gal(b1-3)GlcNAc(b1-4)Gal(b1-4)Glc
# Procedure, shortened: as §1
# [24] = target: Neu5Ac(a2-3)Gal(b1-3)GlcNAc(b1-6)GalNAc
# Procedure, shortened: as §1
# [25] = target: Neu5Ac(a2-3)Gal(b1-3)GlcNAc6S
# Procedure, shortened: as §1
# [26] = target: Neu5Ac(a2-3)Gal(b1-3)[Fuc(a1-4)]GlcNAc
# Procedure, shortened: as §1
# [27] = target: Neu5Ac(a2-3)Gal(b1-3)[Fuc(a1-4)]GlcNAc(b1-3)Gal(b1-3)[Fuc(a1-4)]GlcNAc
# Procedure, shortened: as §1
# [28] = target: Neu5Ac(a2-3)Gal(b1-3)[Fuc(a1-4)]GlcNAc(b1-3)Gal(b1-4)[Fuc(a1-3)]GlcNAc
# Procedure, shortened: as §1
# [29] = target: Neu5Ac(a2-3)Gal(b1-3)[GlcNAc(b1-6)]GalNAc
# Procedure, shortened: as §1
# [30] = target: Neu5Ac(a2-3)Gal(b1-3)[Neu5Ac(a2-3)Gal(b1-4)]GlcNAc
# Procedure, shortened: as §1
# [31] = target: Neu5Ac(a2-3)Gal(b1-3)[Neu5Ac(a2-6)]GalNAc
# Procedure, shortened: as §1
# [32] = target: Neu5Ac(a2-3)Gal(b1-3)[Neu5Ac(a2-6)]GlcNAc(b1-3)[Fuc(a1-3)[Gal(b1-4)]GlcNAc(b1-6)]Gal(b1-4)Glc
# Procedure, shortened: as §1
# [33] = target: Neu5Ac(a2-3)Gal(b1-3)]Neu5Ac(a2-3)Gal(b1-4)]GlcNAc
# Procedure, shortened: as §1
# [34] = target: Neu5Ac(a2-3)Gal(b1-4)Glc
# Procedure, shortened: as §1
# [35] = target: Neu5Ac(a2-3)Gal(b1-4)GlcNAc
# Procedure, shortened: as §1
# [36] = target: Neu5Ac(a2-3)Gal(b1-4)GlcNAc(b1-2)Man
# Procedure, shortened: as §1
# [37] = target: Neu5Ac(a2-3)Gal(b1-4)GlcNAc(b1-2)Man(a1-3)[GlcNAc(b1-4)][Neu5Ac(a2-3)Gal(b1-4)GlcNAc(b1-2)Man(a1-6)]Man(b1-4)GlcNAc(b1-4)GlcNAc
# Procedure, shortened: as §1
# [38] = target: Neu5Ac(a2-3)Gal(b1-4)GlcNAc(b1-2)Man(a1-3)[Neu5Ac(a2-3)Gal(b1-4)GlcNAc(b1-2)Man(a1-6)]Man(b1-4)GlcNAc(b1-4)GlcNAc
# Procedure, shortened: as §1
# [39] = target: Neu5Ac(a2-3)Gal(b1-4)GlcNAc(b1-2)Man(a1-3)[Neu5Ac(a2-3)Gal(b1-4)GlcNAc(b1-2)Man(a1-6)]Man(b1-4)GlcNAc(b1-4)[Fuc(a1-6)]GlcNAc
# Procedure, shortened: as §1
# [40] = target: Neu5Ac(a2-3)Gal(b1-4)GlcNAc(b1-2)Man(a1-3)[Neu5Ac(a2-6)Gal(b1-4)GlcNAc(b1-2)Man(a1-6)]Man(b1-4)GlcNAc(b1-4)GlcNAc
# Procedure, shortened: as §1
# [41] = target: Neu5Ac(a2-3)Gal(b1-4)GlcNAc(b1-2)[Neu5Ac(a2-3)Gal(b1-4)GlcNAc(b1-4)]Man(a1-3)[GlcNAc(b1-4)][Neu5Ac(a2-3)Gal(b1-4)GlcNAc(b1-2)[Neu5Ac(a2-3)Gal(b1-4)GlcNAc(b1-6)]Man(a1-6)]Man(b1-4)GlcNAc(b1-4)GlcNAc
# Procedure, shortened: as §1
# [42] = target: Neu5Ac(a2-3)Gal(b1-4)GlcNAc(b1-2)[Neu5Ac(a2-3)Gal(b1-4)GlcNAc(b1-4)]Man(a1-3)[GlcNAc(b1-4)][Neu5Ac(a2-3)Gal(b1-4)GlcNAc(b1-4)Man(a1-6)]Man(b1-4)GlcNAc(b1-4)GlcNAc
# Procedure, shortened: as §1
# [43] = target: Neu5Ac(a2-3)Gal(b1-4)GlcNAc(b1-2)[Neu5Ac(a2-3)Gal(b1-4)GlcNAc(b1-6)]Man(a1-6)[Neu5Ac(a2-3)Gal(b1-4)GlcNAc(b1-2)Man(a1-3)]Man(b1-4)GlcNAc(b1-4)GlcNAc
# Procedure, shortened: as §1
# [44] = target: Neu5Ac(a2-3)Gal(b1-4)GlcNAc(b1-2)[Neu5Ac(a2-3)Gal(b1-4)GlcNAc(b1-6)]Man(a1-6)[Neu5Ac(a2-3)Gal(b1-4)GlcNAc(b1-2)Man(a1-3)][GlcNAc(b1-4)]Man(b1-4)GlcNAc(b1-4)GlcNAc
# Procedure, shortened: as §1
# [45] = target: Neu5Ac(a2-3)Gal(b1-4)GlcNAc(b1-3)Gal
# Procedure, shortened: as §1
binder,measurement,setting,value
"ECA (Erythrina cristagalli), P83410 (protein) VETISFSFSEFEPGNDNLTLQGAALITQSGVLQLTKINQNGMPAWDSTGRTLYTKPVHMWDSTTGTVASFETRFSFSIEQPYTRPLPADGLVFFMGPTKSKPAQGYGYLGVFNNSKQDNSYQTLAVEFDTFSNPWDPPQVPHIGIDVNSIRSIKTQPFQLDNGQVANVVIKYDAPSKILHVVLVYPSSGAIYTIAEIVDVKQVLPDWVDVGLSGATGAQRDAAETHDVYSWSFQASLPE",glycan array binding signal (z-score),[1],1.29
same,glycan array binding signal (z-score),[2],-0.255
same,glycan array binding signal (z-score),[3],-0.177
same,glycan array binding signal (z-score),[4],-0.023
same,glycan array binding signal (z-score),[5],-0.252
same,glycan array binding signal (z-score),[6],-0.065
same,glycan array binding signal (z-score),[7],-0.235
same,glycan array binding signal (z-score),[8],-0.139
same,glycan array binding signal (z-score),[9],-0.256
same,glycan array binding signal (z-score),[10],-0.433
same,glycan array binding signal (z-score),[11],-0.038
same,glycan array binding signal (z-score),[12],-0.286
same,glycan array binding signal (z-score),[13],-0.342
same,glycan array binding signal (z-score),[14],-0.401
same,glycan array binding signal (z-score),[15],-0.291
same,glycan array binding signal (z-score),[16],-0.269
same,glycan array binding signal (z-score),[17],0.503
same,glycan array binding signal (z-score),[18],-0.349
same,glycan array binding signal (z-score),[19],-1.87
same,glycan array binding signal (z-score),[20],-0.307
same,glycan array binding signal (z-score),[21],-0.246
same,glycan array binding signal (z-score),[22],-0.115
same,glycan array binding signal (z-score),[23],-0.476
same,glycan array binding signal (z-score),[24],-0.202
same,glycan array binding signal (z-score),[25],-0.018
same,glycan array binding signal (z-score),[26],-0.312
same,glycan array binding signal (z-score),[27],-0.144
same,glycan array binding signal (z-score),[28],0.104
same,glycan array binding signal (z-score),[29],-0.225
same,glycan array binding signal (z-score),[30],-0.268
same,glycan array binding signal (z-score),[31],-0.146
same,glycan array binding signal (z-score),[32],-0.417
same,glycan array binding signal (z-score),[33],-0.27
same,glycan array binding signal (z-score),[34],-0.082
same,glycan array binding signal (z-score),[35],-0.276
same,glycan array binding signal (z-score),[36],0.078
same,glycan array binding signal (z-score),[37],-0.395
same,glycan array binding signal (z-score),[38],-0.278
same,glycan array binding signal (z-score),[39],-0.372
same,glycan array binding signal (z-score),[40],-0.288
same,glycan array binding signal (z-score),[41],-0.571
same,glycan array binding signal (z-score),[42],-0.147
same,glycan array binding signal (z-score),[43],1.04
same,glycan array binding signal (z-score),[44],-0.268
same,glycan array binding signal (z-score),[45],-0.496
